PubChem BioAssay AID1508623 (National Center for Advancing Translational Sciences (NCATS), 2021)
The whole screen tested about 48,000 compounds, of which about 450 (0.94%) were called active. Roughly 19% stayed inconclusive and do not appear here. The call rests on the fitted dose curve; in most records, active means well fitted inhibition curve with a large enough effect; inconclusive means small, poorly fitted or top-dose-only effect; inactive means no such curve, though single readings can be large or run the other way. Some of the results follow.

Test: Primary qHTS for Identification of Small Molecule Inhibitors of Huntingtin Promoter Activity; further: nearly all actives have a fitted effect of over 50% in size
Conditions: HEK293 HTT promoter firefly luciferase reporter (activity 0% = vehicle and -100% = no light), 24 h; series mostly up to 57.5 µM; activity change, negative = inhibition: at the top concentration
Summary of the method: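 HEK293 luciferase promoter-reporter cells (2,500/well) plated 24 h, then compounds added at up to 57.5 uM final for 24 h at 37 °C. Firefly luminescence by Dual-Glo, normalized to vehicle (0%) and zero RLU (-100%).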
Potency means the concentration at half of the fitted maximal effect.

Row | SMILES | activity change, negative = inhibition | Potency
1 | Cc1ccc(NC(=O)N2CC3CCCN3c3ccccc32)c(C)c1 (centres undefined) | inactive: -9.35% | 
2 | Cc1ccc(-c2cc(C(=O)N(Cc3ccc(C(C)(C)C)cc3)Cc3ccco3)no2)cc1 | inactive: 2.99% | 
3 | COc1ccc(NC(=O)c2ccco2)cc1NC(=O)COc1ccc(Cl)c(C)c1 | inactive: -37.6% | 
4 | Cc1cc(N2CCN(c3cccc(C(F)(F)F)c3)CC2)n2nc(-c3ccccc3)nc2n1 | inactive: 18.9% | 
5 | CCc1cccc(C)c1NC(=O)CCn1c(=O)c2cccn2c2ccccc21 | inactive: 1.36% | 
6 | CC(C)C(=O)NCC1(N(C)C)CCCCC1 | inactive: 2.39% | 
7 | CCOc1ccc(C(=O)Nc2c(C(=O)N3CCN(c4ccccc4F)CC3)oc3ccccc23)cc1 | inactive: 6.97% | 
8 | Cc1ccc(NS(=O)(=O)c2cc3[nH]c(=O)c(=O)[nH]c3cc2C)cc1Cl | inactive: -3.21% | 
9 | COc1ccc(N2CCN(Cc3cccn3-c3nnc(N4CCN(C5CCCCC5)CC4)s3)CC2)cc1 | inactive: -34.4% | 
10 | CCn1cc(C(=O)N2CCN(c3cc(C)ccc3C)CC2)c(=O)c2cc(S(=O)(=O)N3CCCCC3)ccc21 | inactive: -16.2% | 
11 | Cc1nc(SC(C)C(=O)Nc2ccccc2Cl)cc(-c2ccccc2)n1 (centres undefined) | inactive: -25.8% | 
12 | Cc1ccc([N+](=O)[O-])cc1S(=O)(=O)N1CCn2cccc2C1c1ccccc1 (centres undefined) | inactive: 9.19% | 
13 | CC(Oc1ccc(Br)cc1)C(=O)Nc1ncn[nH]1 (centres undefined) | inactive: -6.54% | 
14 | COc1ccc(NC(=O)CCc2nnc3n(Cc4ccccc4Cl)c(=O)c4ccccc4n23)cc1 | inactive: -4.7% | 
15 | Cc1ccc2nc(-c3ccc(Cl)c(NC(=O)COc4ccc(C(C)C)cc4)c3)oc2c1 | inactive: 17.1% | 
16 | Cc1ccc(C)c(NC(=O)C2CCCN(S(=O)(=O)c3cn(C)cn3)C2)c1 (centres undefined) | inactive: -5.45% | 
17 | CC(N)C(=O)OC(C)(C)Cc1ccc(Cl)cc1 (centres undefined) | inactive: -9.22% | 
18 | COc1ccc(Br)cc1CNC(=O)CCSCc1ccc(C)cc1 | inactive: -29.3% | 
19 | Cc1ccc(S(=O)(=O)N2CCN(Cc3nc4ccc(C)cc4o3)CC2)cc1 | inactive: -17.1% | 
20 | O=C(Cn1cc(S(=O)(=O)c2ccccc2)c(=O)c2cc3c(cc21)OCO3)Nc1ccc(Cl)cc1 | inactive: -25.4% | 
21 | CCNc1cc(N2CCN(C3CCCCC3)CC2)c2noc3c2c1C(=O)c1ccccc1-3 | inactive: -2.73% | 
22 | CSc1ccc(CCNC(=O)c2ccc(-c3nc(COc4ccc(C)cc4)c(C)o3)cc2)cc1 | inactive: -11.2% | 
23 | CCOC(=O)CSc1nc2ccccc2c(=O)n1-c1cccc(C)c1 | inactive: -17.8% | 
24 | O=C(O)Cc1ccc(NC2(c3ccccc3)C(=O)c3ccccc3C2=O)cc1 | inactive: -1.37% | 
25 | COC(=O)c1ccccc1NC(=O)C1=C(C)C(=O)OC12CCCCCC2 | inactive: -5.94% | 

Row | SMILES | activity change, negative = inhibition | Potency
26 | COc1ccc(C(=O)Nc2ccccc2SCc2cc(=O)c3cccc(C)c3[nH]2)cc1 | inactive: 7.27% | 
27 | O=C(O)Cc1sc(Nc2ccccc2)nc1-c1ccccc1 | inactive: 53.2% | 
28 | COc1ccc(NC(=O)CSc2nc3ccccc3n2CC(=O)N2CCCCC2C)cc1 (centres undefined) | inactive: -24.1% | 
29 | COc1ccc(-c2nc3ccc(C4=NNC(=O)CC4C)cc3[nH]2)cc1 (centres undefined) | inactive: 28.5% | 
30 | Cc1nn(CCC(=O)NCc2ccc(Cl)cc2)c(=O)c2nn(-c3ccccc3)c(C)c12 | inactive: -18.7% | 
31 | CCOc1cccc(CC(=O)NCc2ccc3c(c2)CCN3C(C)=O)c1OCC | inactive: -6.35% | 
32 | CCC(C)NC(=O)CCc1c(C)nc2c(c(C)nn2-c2ccc(C)cc2)c1C (centres undefined) | inactive: -13.4% | 
33 | COCC(C)NC(=O)c1cc2c(=O)n3cccc(C)c3nc2s1 (centres undefined) | inactive: 26.9% | 
34 | O=[N+]([O-])c1cc(-c2nc(-c3ccco3)no2)ccc1NCc1ccccc1 | inactive: 14.6% | 
35 | CN(CC=CC#CC(C)(C)C)Cc1cccc2ccccc12 | inactive: 1.41% | 
36 | CCN(CC)CCNC(=O)COc1ccc(OC)cc1 | inactive: 6.94% | 
37 | COc1ccc(Cn2c(CO)cnc2SCc2ccc(F)cc2)cc1 |  | active: 31.6 µM
38 | CCc1ccc(Sc2cc(C(=O)O)c3ccccc3n2)cc1 | inactive: 0.776% | 
39 | COc1ccc(-n2nc(C(=O)N(C)c3cc(Cl)ccc3OC)c3c4ccccc4n(C)c3c2=O)cc1 | inactive: -8.73% | 
40 | Cc1ccc(Cc2nc3ccccc3nc2SCC(=O)N2CCN(c3ccccc3)CC2)cc1 | inactive: -0.206% | 
41 | CCOc1ccccc1NC(=O)C1=C(C)Nc2ncnn2C1c1ccc(NC(C)=O)cc1 (centres undefined) | inactive: -4.44% | 
42 | Cc1ccc(NC(=O)CC2Nc3cc(C)c(C)cc3NC2=O)c(C)c1 (centres undefined) | inactive: -27.4% | 
43 | Cc1nn(CCCC(=O)NCc2ccc(OC(C)C)cc2)c(=O)c2c1sc1ccccc12 | inactive: -2.19% | 
44 | N#CC1=C2SCN(C3CCCCC3)CN2C(=O)CC1c1c(F)cccc1Cl (centres undefined) | inactive: -18.1% | 
45 | Cc1ccc(S(=O)(=O)c2[nH]c(-c3ccccc3)nc2SCCC(=O)O)cc1 | inactive: -5.96% | 
46 | Cc1cccc(CCNC(=O)c2ccc(CSCc3cccc(Cl)c3)o2)c1 | inactive: -13.1% | 
47 | CCCn1c(=N)n(CC(O)COc2ccccc2OC)c2ccccc21 (centres undefined) | inactive: -6.48% | 
48 | Cc1ccc(N2CC(NC(=O)CCc3ccccc3)CC2=O)cc1C (centres undefined) | inactive: -16% | 
49 | Cc1nn(CC(=O)N2CCN(c3cccc(C(F)(F)F)c3)CC2)c(=O)c2cc3sccc3n12 | inactive: -6.82% | 
50 | CCn1ccc2c(OCC(=O)NCc3ccccc3)cccc2c1=O | inactive: -23.2% | 

Row | SMILES | activity change, negative = inhibition | Potency
51 | CCCN1CCN(c2cc3c(cc2F)c(=O)c(S(=O)(=O)c2ccc(CC)cc2)cn3CC)CC1 | inactive: 4.41% | 
52 | CCOc1ccc(NC(=O)CC(C)O)cc1 (centres undefined) | inactive: 12.9% | 
53 | CC1Cn2c(C(=O)NCc3cccc(Br)c3)cc3cccc(c32)S1 (centres undefined) | inactive: -10.8% | 
54 | Cc1ccc(C(=O)O)cc1NC1(c2ccccc2)C(=O)c2ccccc2C1=O | inactive: -3.49% | 
55 | COc1ccc2oc(-c3ccc(C)c(NC(=O)c4ccc(-c5ccccc5[N+](=O)[O-])o4)c3)nc2c1 | inactive: -4.86% | 
56 | Cc1c(Cl)cccc1NC(=O)CSc1nc2ncccc2o1 | inactive: -16.8% | 
57 | COc1ccccc1CNC(=O)C1CCCN(c2nnc(C)c3c(C)n(-c4ccccc4)nc23)C1 (centres undefined) | inactive: -4.55% | 
58 | CC(=O)OCC1=C(C(=O)O)N2C(=O)[C@@H](NC(=O)Cc3cccs3)[C@H]2SC1 | inactive: 4.04% | 
59 | CCc1ccccc1NC(=O)c1sc2nc(C)cc(COC)c2c1N | inactive: -0.896% | 
60 | C=Cc1ccc(Cn2c(=O)cc(C)c3c(C)nn(-c4ccccc4)c32)cc1 | inactive: -11.9% | 
61 | O=C(NC1(C(F)(F)F)C(=O)Nc2c1c(=O)[nH]c(=O)n2-c1ccccc1)c1ccccc1Cl (centres undefined) | inactive: -7.02% | 
62 | CC(C)c1ccc(CNc2nc(-c3ccco3)nn2C(=O)c2ccc([N+](=O)[O-])cc2)cc1 | inactive: 70.9% | 
63 | CSCCC(NS(=O)(=O)c1ccc2c(c1)oc(=O)n2C)C(=O)Nc1ccc(Cl)cc1 (centres undefined) | inactive: -12.2% | 
64 | COCc1cc(C)nc2sc3c(c12)NC(c1ccc(O)c(OC)c1)N(c1ccccc1)C3=O (centres undefined) | inactive: -1.4% | 
65 | COc1ccc(OCC(=O)N(Cc2cccs2)c2ccc(OC)cc2)cc1 | inactive: -15.7% | 
66 | CCn1c(C)c(C)c2cc(C(=O)NCc3ccc(OC(C)C)cc3)ccc21 | inactive: 4.08% | 
67 | CCCCCN(CCC12CC3CC(CC(C3)C1)C2)C(=O)NCCCc1ccncc1 | inactive: -5.24% | 
68 | COc1ccc(NC(=O)Cn2c(=O)n(Cc3ccc4c(c3)OCO4)c(=O)c3ccc(C(=O)NC4CCCCC4)cc32)cc1 | inactive: -3.57% | 
69 | CCOCCCNc1nc2ccccc2n2c(CC)nnc12 | inactive: 35.4% | 
70 | COc1ccccc1NC(=O)CSc1nc(-c2ccc(C)cc2)nc2c1Cc1c(CO)cnc(C)c1O2 | inactive: -10.2% | 
71 | COc1ccc(-c2cn3nc(N4CCCC(C(=O)Nc5ccccc5OC)C4)sc3n2)cc1 (centres undefined) | inactive: 3.27% | 
72 | COC(=O)c1ccccc1NC(=O)Cn1c(=O)n(CCC(=O)NCc2ccccc2OC)c(=O)c2ccccc21 | inactive: -9.79% | 
73 | Cc1cn([C@@H]2O[C@H](CO)[C@@H](O)[C@H]2F)c(=O)[nH]c1=O | inactive: 13.7% | 
74 | Cc1ccc(Cl)cc1NC(=O)CN1C(=O)CSc2ccc(S(=O)(=O)N3CCCC3)cc21 | inactive: -16.8% | 
75 | c1ccc2occc2c1 | inactive: 7.4% [at 116 µM] | 

Row | SMILES | activity change, negative = inhibition | Potency
76 | Cc1cccc(NC(=O)CCN2CCN(c3ccccc3F)CC2)c1 | inactive: -11.6% | 
77 | CCOC(=O)c1c(S(=O)(=O)NCC(=O)N2CCN(c3cc(C)ccc3C)CC2)c(C)n(C)c1C | inactive: -20.7% | 
78 | CCCN(C(=O)Cn1ncc2c1-c1ccccc1OC2)c1cccc(C)c1 | inactive: -30.5% | 
79 | Cc1cccc(C)c1NC(=O)Cn1c(=O)n(CCCS(=O)(=O)C2CCCCC2)c(=O)c2ccccc21 | inactive: -8.51% | 
80 | CCc1ccc(-c2nc(SCC(=O)NCC3CCCO3)c(-c3ccc(C)cc3)[nH]2)cc1 (centres undefined) | inactive: -11.4% | 
81 | CCOC(=O)C1CCN(c2c(C(=O)c3ccc(OC)cc3)cnc3ccccc23)CC1 | inactive: -10.2% | 
82 | O=C(CSc1nccn1C1CCCC1)Nc1cccc(F)c1 | inactive: 10.5% | 
83 | CSCC[C@@H](C(=O)Nc1cccc(F)c1)N1Cc2ccccc2C1=O | inactive: -4.27% | 
84 | CCOCCc1nn2c(=O)cc(COC(=O)Cc3ccccc3)nc2s1 | inactive: -1.66% | 
85 | CN(c1ccccc1)S(=O)(=O)c1nnc(NC(=O)COc2ccccc2)s1 | inactive: -15.2% | 
86 | CCOC(=O)c1cc2c(=O)n3ccccc3nc2n(Cc2ccco2)c1=NC(=O)c1ccc(C)c(C)c1 | inactive: -13.3% | 
87 | O=C(Nc1cc2c(cc1C(=O)c1cccc(Br)c1)OCCO2)c1ccccc1F | inactive: -10.8% | 
88 | CN(C(=O)Cn1cnc2onc(-c3ccc(F)cc3)c2c1=O)c1ccccc1Cl | inactive: -13.1% | 
89 | Cc1cc(C)cc(-n2c(C)cc(C(=O)C(=O)Nc3nnc(C)s3)c2C)c1 | inactive: -27% | 
90 | O=C(NC1(C(F)(F)F)C(=O)Nc2c1c(=O)[nH]c(=O)n2-c1ccccc1)c1ccccc1 (centres undefined) | inactive: -12.5% | 
91 | CCOc1ccc(C(=O)NCc2nc3cccnc3n2Cc2cccc(OC)c2)cc1 | inactive: -0.932% | 
92 | CCCN(CCC)C(=O)Cn1c(SCc2cccc(C(F)(F)F)c2)nc2cccnc21 | inactive: -24.4% | 
93 | N#Cc1ccccc1NC(=O)C(=O)NCCc1csc2nc(-c3cccc(F)c3)nn12 | inactive: -7.35% | 
94 | C=CCCCCCCCCC(=O)O | inactive: 9.77% | 
95 | COc1ccc(OC)c(CNC(=O)CN(c2ccc(C)cc2)S(=O)(=O)N(C)C)c1 | inactive: -5.83% | 
96 | Cc1cccc(NC(=O)N2CCN(C)c3ncccc32)c1C | inactive: -12.2% | 
97 | Cc1ccc2occ(CC(=O)N(Cc3ccccc3Cl)C3CCS(=O)(=O)C3)c2c1 (centres undefined) | inactive: -27.2% | 
98 | O=C(CSc1oc(-c2ccccc2)nc1S(=O)(=O)c1ccc(Cl)cc1)Nc1ccc(F)cc1 | inactive: -13.7% | 
99 | Cc1ccc(Cn2cc(CCC(=O)NC3CCC(C)CC3)c3ccccc32)cc1 (centres undefined) | inactive: -23.9% | 
